# Test results: PubChem BioAssay AID624296 (National Center for Advancing Translational Sciences (NCATS), 2012)
# Screen size: about 350,000 compounds; about 9,900 (2.8%) were called active. Inconclusive means that the source gave no clear call. Such entries were picked first, then a sample of the others. The call rests on the fitted dose curve; in most records, active means well fitted activation curve with a large enough effect; inconclusive means small, poorly fitted or top-dose-only effect; inactive means no such curve, though single readings can be large or run the other way. No potency is given beside an inconclusive call; the fits are too rough.
# Experiment: A quantitative high throughput screen for small molecules that induce DNA re-replication in MCF 10a normal breast cells. Further: nearly all actives have a fitted effect of over 50% in size. On activity, positive = re-replication: % of control where 0% means no effect.
# Conditions: MCF 10A DNA re-replication, Hoechst nuclear intensity, 48 h; activity, positive = re-replication: at 46.1 µM (top of the series)
# Potency means the concentration at half of the fitted maximal effect; tags describe the fitted curve by direction and shape.
SMILES,"activity, positive = re-replication",Potency
Cc1c(C(=O)NCC(c2ccco2)N(C)C)oc2c(Cl)cccc12 (stereo not drawn),inactive: 16%,
CC(C)COc1ccc(C(=O)N(Cc2ccco2)C2CCS(=O)(=O)C2)cc1 (stereo not drawn),inactive: 4.39%,
CC(C)(C)c1ccc(C2=CSC3=NCCN23)cc1,,"inconclusive [activator, partial curve]"
O=C(Nc1cccc(/C=C/c2nc3ccccc3c(=O)[nH]2)c1)c1ccccc1Cl,,"inconclusive [activator, single point]"
Cc1cc2nn(-c3ccc(F)cc3)nc2cc1N,,active: 20.6 µM
O=C(c1cc(-c2cccc(O)c2)on1)N1CCN(C(c2ccccc2)c2ccccc2)CC1,,active: 6.51 µM
Cc1ccc(C(=O)C(C)OC(=O)Cc2c[nH]c3ccccc23)cc1 (stereo not drawn),,"inconclusive [activator, partial curve, poor fit]"
COc1ccc(CN2CCC(n3nccc3NC(=O)CCCc3ccccc3)CC2)cc1C,,"inconclusive [activator, partial curve]"
O=S(=O)(c1cccc2nsnc12)N1CCCCC1,inactive: 16.6%,
Cn1c(=O)[nH]c(=O)c2c1nc(SCCN1CCOCC1)n2CCCc1ccccc1,,"inconclusive [activator, single point]"
Cc1cccc(NC(=O)CSc2nc3ccccc3c3nc(CCc4c(C)n[nH]c4C)nn23)c1,,active: 7.31 µM
COC(=O)c1sc(C(C)(C)C)cc1CSc1ccccc1,inactive: 0.533%,
COc1ccc(SC[C@H](Cc2ccccc2)N2CCN(CCc3ccccc3)CCC2=O)cc1,,"inconclusive [activator, single point]"
CC(C)CC(=O)N1CCN(S(=O)(=O)c2ccc3ccccc3c2)CC1,inactive: 6.1%,
COc1ccc(-c2nnc(SCc3nc4ccccc4c(=O)[nH]3)o2)cc1,inactive: 11.3%,
ClC(/C=N/n1cnnc1)=C/c1ccccc1,,"inconclusive [activator, single point]"
COc1ccccc1-c1cc(C(=O)NCCc2ccccc2)no1,,active: 14.6 µM
CCOC(=O)N1CCN(C(=O)c2ccc(NS(=O)(=O)c3ccc4[nH]c(=O)[nH]c4c3)cc2)CC1,inactive: -1.81%,
COc1ccc(C(=O)CC(=O)C(=O)Nc2c(C)cccc2C)cc1,,"inconclusive [activator, partial curve, poor fit]"
Cc1cccc(-c2nsc(SCC(=O)NCc3ccco3)n2)c1,inactive: 11.7%,
CC(Nc1nc(-c2ccc(F)cc2)cs1)c1nc2cc(Cl)c(Cl)cc2n1CCOCCO (stereo not drawn),,"inconclusive [activator, partial curve, poor fit]"
COc1cccc(C(=O)Oc2c(CN3CCOCC3)cc(Cl)c3cccnc23)c1,inactive: 13.5%,
Cc1ccc(C(=O)OCC(=O)N2CCOCC2)c(C)c1,,"inconclusive [activator, single point]"
COC(=O)c1ccc(CSc2nnc(N)s2)cc1,inactive: -2.16%,
O=c1c(Cc2ccccc2)c(O)c2cccc3c4c(n1c23)CCCC4,,"inconclusive [activator, single point]"

SMILES,"activity, positive = re-replication",Potency
Cc1ccc(-n2c(SCC(=O)NCCC3=CCCCC3)nc3n[nH]c(C)c3c2=N)cc1Cl,,active: 16.4 µM
CC1CCCN(Cc2ccc(OCc3ccccc3)cc2)C1 (stereo not drawn),,"inconclusive [activator, full curve, poor fit]"
CCOc1ccc(OCC(=O)Nc2ccccc2N2CCCC2)cc1,,"inconclusive [activator, single point]"
CCOc1ccc(CCNC(=O)C(C)n2nc(C)c3c(C)n(-c4ccccc4)nc3c2=O)cc1 (stereo not drawn),inactive: 7.63%,
O=C(O)C1C2CCC(C2)C1C(=O)NCc1ccco1 (stereo not drawn),,"inconclusive [activator, single point]"
CC(C)c1nc2sc3c(c2c(=O)[nH]1)CC(C)(C)OC3,inactive: -21.3%,
O=[N+]([O-])c1cc(C(F)(F)F)ccc1N1CCCNCC1,,"inconclusive [activator, partial curve, poor fit]"
Cc1ccc(CSc2nc3c(c(SCC(=O)O)n2)CCCC3)cc1,inactive: 10.8%,
NC(=O)CSC1=N/C(=C\c2ccco2)C(=O)N1c1ccc(OC(F)F)cc1,inactive: -0.154%,
COc1cc(O)oc1C=Nc1ccc(C(=O)O)cc1,inactive: -4.36%,
O=C(Cc1ccc(S(=O)(=O)N2CCOCC2)s1)Nc1cc(C(F)(F)F)cc(C(F)(F)F)c1,,active: 20.6 µM
Cc1ccc(S(=O)(=O)Nc2cccc(-c3ccc4nnc(C)n4n3)c2)s1,,"inconclusive [activator, single point]"
O=C1C2CC=CCC2C(=O)N1c1cccc(OS(=O)(=O)c2ccc3ccccc3c2)c1 (stereo not drawn),,"inconclusive [activator, partial curve, poor fit]"
COc1ccc(N=C2C(=O)N3CCCc4cccc2c43)cc1,inactive: 8%,
CCCc1nc2sc3c(c2c(=O)n1NC(=O)CCCl)CCCC3,,"inconclusive [activator, single point]"
C/C(=N\NC(=O)c1c(Cl)c(C)nn1C)c1cccc(NC(=O)COc2ccc(Cl)cc2)c1,,"inconclusive [activator, partial curve, poor fit]"
CC(=O)[C@]1(O)CCC2C3C=C(Cl)C4=CC(=O)C5CC5[C@@]4(C)C3CC[C@]21C (stereo partly drawn),inactive: 7.19%,
Cc1cc(C)nc(NNS(=O)(=O)c2c(F)cc(F)cc2Br)n1,inactive: -2.82%,
CCOC(=O)Nc1cc(=O)c2ccccc2o1,,"inconclusive [activator, single point]"
COc1ccc(S(=O)(=O)NCCCCOc2ccc(Cl)cc2)cc1,,"inconclusive [activator, single point]"
CCOc1cc(CNCc2ccccc2)ccc1OCC(=O)NC1CCCCC1,inactive: 26.2%,
N#Cc1cc2c(=O)n3ccccc3nc2n(CCCN2CCOCC2)c1=O,,active: 23.1 µM
COC(=O)c1cc(=O)n(Cc2ccc(F)cc2)c(=Nc2ccccc2)s1,,"inconclusive [activator, single point]"
CCOC(=O)/C(=C\c1ccc(Cl)cc1)c1nc2sc(C)c(C)c2c(=O)[nH]1,,active: 5.17 µM
O=C(NCc1cccc(Cl)c1)c1cccc(OC2CCN(C(=O)C3CC3)CC2)c1,,"inconclusive [activator, partial curve, poor fit]"

SMILES,"activity, positive = re-replication",Potency
Cc1cc(C)n(CC(=O)N/N=C/c2cc(Br)cc([N+](=O)[O-])c2O)n1,,"inconclusive [activator, partial curve, poor fit]"
COc1ccc(N2CCN(CC(=O)Nc3ccc(-n4cnnn4)cc3)CC2)cc1,,"inconclusive [activator, single point]"
O=C(NC(NC(=S)Nc1ccc(Cl)cc1)C(Cl)(Cl)Cl)c1ccco1 (stereo not drawn),,"inconclusive [activator, partial curve, poor fit]"
COc1ccc(C2C(C(=O)c3cccs3)=C(O)C(=O)N2c2cccc(C)n2)cc1 (stereo not drawn),,"inconclusive [activator, partial curve, poor fit]"
CC1Cc2ccccc2N1C(=O)CSc1nnc(Cn2nnc3ccccc32)n1C (stereo not drawn),inactive: 4.37%,
CCSc1nnc(NC(=O)c2cnccn2)s1,inactive: 4.6%,
CCOC(=O)c1ccc(NS(=O)(=O)c2c(C)n[nH]c2C)cc1,inactive: -1.98%,
O=C(CCCCCN1C(=O)[C@@H]2Cc3ccccc3CN2C1=O)NCCc1ccccc1,inactive: -38.6%,
NNC(=O)c1ncoc1-c1ccc(Cl)cc1,,"inconclusive [activator, partial curve]"
CC(C)(C)C(=O)Nc1ccc(Sc2ccc([N+](=O)[O-])cc2)cc1,,"inconclusive [activator, single point]"
COc1ccccc1N1CCN(C(=O)c2ccc(-c3ccc(Cl)cc3)o2)CC1,,"inconclusive [activator, full curve, poor fit]"
COc1ccc(O)c(/C=N/Nc2nc(Nc3ccccc3)nc(-n3nc(C)cc3C)n2)c1,,"inconclusive [activator, single point]"
CC1CCc2cc(F)ccc2N1C(=O)CCl (stereo not drawn),,"inconclusive [activator, single point]"
CN(C(=O)c1ccc(COc2ccccc2Br)o1)c1ccccc1,inactive: -1.92%,
Cn1c(COc2ccc(Cl)cc2)nnc1SCC(=O)Nc1ccc2c(c1)CCC2,inactive: -2.87%,
OCCC1CN(Cc2cccc(O)c2)CCN1CCc1ccccc1 (stereo not drawn),,"inconclusive [activator, single point]"
CN(Cc1ccccc1)C(=O)CC(c1ccccc1)c1cc(Cl)ccc1O (stereo not drawn),,"inconclusive [activator, single point]"
Cc1ccc(C(=O)CN(CCC(=O)O)S(=O)(=O)c2ccc([N+](=O)[O-])cc2)cc1,inactive: -1.55%,
COc1ccc(C(c2nnnn2Cc2cccs2)N2CCC(C(N)=O)CC2)c(OC)c1 (stereo not drawn),,"inconclusive [activator, partial curve, poor fit]"
CCC1=Nc2cc(C(=O)NCCCOC(C)C)ccc2Sc2ccccc21,,"inconclusive [activator, single point]"
Cc1cc(C)c(NC(=O)Cn2nnc(C(=O)Nc3ccc(F)cc3F)c2N)c(C)c1,,"inconclusive [activator, partial curve, poor fit]"
COc1cccc(/C=C2/SC(=S)N(CC(=O)NC3C=CS(=O)(=O)C3)C2=O)c1 (stereo not drawn),,"inconclusive [activator, single point]"
CC(C)c1ccc(O)c(NC(=O)c2cccnc2)c1,inactive: -11.4%,
